± gives the standard deviation. Only a part is listed here, and it is no random draw.
system: MIWI (PIWIL1) piRISC loaded with L1MC piRNA (30 nt); test: pre-steady-state target cleavage rate (min^-1); MIWI and MILI are mouse PIWI proteins and EfPiwi is from a freshwater sponge; tags in brackets are library labels; higher = faster piRNA-guided slicing of the target; settings: guide: L1MC piRNA 5'p-UAACUAAAUACUAUGCAAGCUGUAGGUCCU; auxiliary factor: 500 nM mouse GTSF1
How it was run: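 In this Cleave-'n-Seq assay, uncleaved targets were sequenced and normalised to depth and to weakly complementary targets. They came from a transcribed, DNA-blocked target RNA library […] mixed with 1 nM active affinity-purified piRISC carrying one synthetic guide, with or without 500 nM GTSF1 partner protein, in HEPES–potassium acetate buffer at 33 °C for 0–8 or 0–960 min. After three trials were pooled and k3 was capped at 0.0001 min^-1, the pre-steady-state cleavage rate was obtained from a burst-and-steady-state fit.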
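Note: 1 nM active piRISC with 0.1 nM target library at 33 °C single turnover.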

Sequence | pre-steady-state target cleavage rate
UGGACCUACAGCUUGCAAUGUAUUUUCAAA | 0.0195 ± 0.0055
UCCUGGAUGUCCUUGCAUAGUAUUUUCUUA | 0.0231 ± 0.0072
UCCUGGAUCAGCUUGCAAUCUAUUUAGUAA | 0.00469 ± 0.0034
UCCUGCUACAGCUAGCAUAGUAUUUAGAUA | 0.357 ± 0.043
UCCACCUACAGCUUGCAAUGUAUUUAGAAA | 0.106 ± 0.02
UGGACCUACAGCUUGCAUCAGUAUUUAGUUA | 0.00927 ± 0.0043
UCCACCAACAGCUUGCAUAGUAUUUACAAA | 0.339 ± 0.047
UCCACCUACAGCUUGCAUCAGUAUUUAGUUA | 0.0253 ± 0.011
UCCUGGAUCAGCUUCCAUAGUAUUUAGAAA | 0.00542 ± 0.0041
AGGACCUACAGCUUGCAUAGUUAUUUCAAA | 0.243 ± 0.079
UCCACCUACAGCUUGCAUAGUUAUUACAAA | 0.0703 ± 0.025
UCCUGGUACAGCUUGCAUAGUAUUUUCAAA | 0.181 ± 0.03
UCCUGGAACAGCUACGAUAGUAUUUAGUAA | 0.00743 ± 0.0044
UCCUGCUACAGCUACGAUAGUAUUUAGUUA | 0.143 ± 0.023
UCCUGGUACAGCUUGCAUAGUAUAAACAAA | 0.0984 ± 0.028
UCCUGGAUGACCUUGCAUAGUAUUAAGUUA | 0.0362 ± 0.0085
UCCUGCUACAGCUUGCAUAGUAAAUACAAA | 0.0807 ± 0.028
UCCUGGAACAGCUUGCACUAGUAUUUAGUUA | 0.0115 ± 0.0049
UCCUGCUACAGCUUGCAUAGUAUAUAGAAA | 0.136 ± 0.029

Sequence | pre-steady-state target cleavage rate
UCCACCUACAGCUUGCAUAGUAAUUAGAAA | 0.259 ± 0.046
UCCUGGAUGUCGUUGCCUAGUAUUUAGUUA | 0.00376 ± 0.0027
UCCACCUACAGCUUGCAUUCUAUUUAGUAA | 0.0863 ± 0.019
UCGACCUACAGCUUGCAUAGCUAUUUAGUUA | 0.0589 ± 0.021
UCCUCCUAGUCCUUGCAUAGUAUUUAGAAA | 0.138 ± 0.032
UCCACCUACAGCUUGCAUAGUAAAAAGUUA | 0.297 ± 0.026
UCCUGCUACAGCUUGCAUAGAUUUUAGUAA | 0.0557 ± 0.0078
UCCUGCUACAGCUUGCAUAGUAUUAUCAAA [g7:g25:cont:t1A] | 0.292 ± 0.047
UCCUGGAUCAGCUUGCAUAGUAAUAAGUUA | 0.0493 ± 0.015
UCCUGGUACAGCAACCAUAGUAUUUAGUAA | 0.0151 ± 0.0073
UCCUGGAUGAGGUUGGAUAGUAUUUAGUUA | 0.124 ± 0.02
UCCUGCUACAGCUUGCUUAGUAUUUAGAAA | 0.212 ± 0.04
UCCUGGAUCAGCUUGCUUAGUAUUUACAAA | 0.113 ± 0.028
UCCACCUACUCCUUGCAUAGUAUUUACAAA | 0.261 ± 0.045
UCCACCUACAGCUUGCAUAGAUUUUAGAAA | 0.0447 ± 0.017
UCCUGGAUGUCGAACGUAAGUAUUUAAUUA | < 0.0001
UCCACCUACAGCUUGCAUAGUAAAUUCAAA | 0.228 ± 0.062
UCCUGGAUGUCGUUGCAUAGUAUUUUAGUUA | 0.00656 ± 0.0039

same assay, conditions: guide: L1MC piRNA 5'p-UAACUAAAUACUAUGCAAGCUGUAGGUCCU; auxiliary factor: none (no GTSF1)

Sequence | pre-steady-state target cleavage rate
UCCUGGAUGUCGAACCAUAGUAUUUAGCUA | < 0.0001
UCCUGGAUGUCGAUGGAUAGUAUUAAGUUA | < 0.0001
UCCUGGAUGUCGAACGUAAGUAAUUAGUAA | < 0.0001

Reference: the supplement of paper PMC10338343
